Reference: PubChem BioAssay AID492947 (National Center for Advancing Translational Sciences (NCATS), 2010)
Screen size: about 330,000 compounds; about 80 (0.02%) were called active. The shares of active, inactive and inconclusive entries below differ from those in the screen. Calls follow the shape of the dose curve; as a rule, active = well fitted activation curve with a large enough effect; inconclusive = small, poorly fitted or top-dose-only effect; inactive = flat fitted curve, though single readings scatter. Potencies of inconclusive entries are left out as doubtful fits.

What follows are compounds tested against Beta-2 adrenergic receptor (Homo sapiens) (UniProt P07550) (assay: qHTS assay of beta-arrestin-biased ligands of beta2-adrenergic receptor). Settings: beta-arrestin recruitment to beta2AR, cell-based reporter; series mostly up to 46.1 µM; activation: at the top concentration.
Outline: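 Tango cells expressing recombinant beta2-AR and beta-arrestin with tTA-driven luciferase, in DMEM with 1% FBS. Compounds were titrated up to 46 microM for 18 hr at 37 degrees C. Luminescence was read 15 min after substrate; curves were fitted and class-assigned.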
Also: nearly all actives have a fitted effect of over 65% in size.
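For activation in this document: 0% = DMSO controls and full agonism = EC100 isoproterenol or metaproterenol.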
Potency is read from the fitted curve at half-maximal effect; tags tell the direction and shape of the fitted curve.

Sequence of UniProt P07550 (P07550 whole entry, looked up): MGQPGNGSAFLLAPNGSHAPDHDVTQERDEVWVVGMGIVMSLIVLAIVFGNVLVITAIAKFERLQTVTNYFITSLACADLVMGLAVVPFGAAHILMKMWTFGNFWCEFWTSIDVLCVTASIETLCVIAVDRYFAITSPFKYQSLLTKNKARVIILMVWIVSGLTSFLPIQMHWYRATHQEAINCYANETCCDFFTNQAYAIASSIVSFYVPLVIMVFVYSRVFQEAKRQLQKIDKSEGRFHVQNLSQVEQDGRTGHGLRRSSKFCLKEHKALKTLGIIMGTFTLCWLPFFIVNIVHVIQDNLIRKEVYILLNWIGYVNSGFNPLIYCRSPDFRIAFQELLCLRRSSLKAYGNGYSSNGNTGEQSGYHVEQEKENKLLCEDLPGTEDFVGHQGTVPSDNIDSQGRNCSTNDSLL

| SMILES | Potency | activation |
| --- | --- | --- |
| COc1ccc(NC(=S)NC(=O)c2ccc3c(c2)OCCO3)cc1 | inconclusive [rising, single point] | – |
| NNc1ccc(Cl)nn1 | inconclusive [rising, single point] | – |
| S=c1nc(-c2ccccc2)[nH]c2ccccc12 | inconclusive [rising, single point] | – |
| Cc1ccc(/C=C2/NC(=O)N(Cc3ccc(Br)cc3)C2=O)o1 | inconclusive [rising, single point] | – |
| COC(=O)c1cc2sc(Cl)cc2n1CC(=O)Nc1ccc(OC)c(OC)c1OC | inconclusive [activator, partial curve] | – |
| CCCn1c(=O)[nH]c(=O)c2c1nc(-c1ccc(OC(F)(F)C(F)C(F)(F)F)cc1)n2CCOC (stereo not given) | – | inactive: 0.06% |
| O=C(NCC(c1ccco1)N1CCCC1)c1cn(Cc2ccccc2)nc1-c1ccccc1 (stereo not given) | inconclusive [activator, partial curve] | – |
| Cc1ccc(Nc2c(-c3ccco3)nc3ccccn23)cc1 | – | inactive: 0.288% |
| C=CCOc1ccc(/C=C/C(=O)OCC(=O)N(C)CC(=O)Nc2ccccc2Cl)cc1 | inconclusive [rising, partial curve, poor fit] | – |
| NNC(=O)c1ccc(CSc2cccc3cccnc23)cc1 | – | inactive: -0.143% |
| CCCc1c(-c2ccc(O)cc2)nn(-c2ccc(O)cc2)c1-c1ccc(O)cc1 | inconclusive [rising, single point] | – |
| Cn1c(/C=C/c2ccc([N+](=O)[O-])o2)nc2ccccc2c1=O | inconclusive [activator, full curve] | – |
| Cc1ccccc1N=C1NN=C(c2ccccc2F)CS1 | – | inactive: -0.0777% |
| CCc1ccccc1NC(=S)N=Nc1c(O)n(C)c2ccc(S(=O)(=O)N3CCOCC3)cc12 | inconclusive [rising, single point] | – |
| Cc1ccc(OCc2nnc(SC3CCc4ccccc4C3=O)n2C)cc1 (stereo not given) | inconclusive [rising, single point] | – |
| CC(=O)c1ccc(NC(=S)NC(C)CCc2ccccc2)cc1 (stereo not given) | – | inactive: -0.304% |
| Nc1c(N(CCC2=CCCCC2)C(=O)Cc2ccc(F)cc2)c(=O)[nH]c(=O)n1Cc1ccccc1 | inconclusive [rising, single point] | – |
| CCN(CC)S(=O)(=O)c1ccc(N/N=C(\C)c2ccc(OC)cc2O)nc1 | inconclusive [rising, single point] | – |
| OCCN1CCN(c2ncnc3ccc(Br)cc23)CC1 | inconclusive [rising, single point] | – |
| COc1ccc(OC)c(N/C(C)=C/C(=O)c2ccncc2)c1 | – | inactive: -0.819% |
| CCc1ccc2oc(-c3ccc(NC(C)=O)cc3)nc2c1 | inconclusive [rising, single point] | – |
| Cc1cc(-c2n[nH]c(=S)n2/N=C/C(Cl)=C/c2ccccc2)n[nH]1 | inconclusive [activator, partial curve] | – |
| O=C(O)c1ccc(Oc2cc(Oc3ccc(C(=O)O)cc3)cc([N+](=O)[O-])c2)cc1 | inconclusive [rising, single point] | – |
| Cc1cc(C)c(NC(=S)NC(NC(=O)c2ccccc2)C(Cl)(Cl)Cl)c(C)c1 (stereo not given) | inconclusive [rising, single point] | – |

| SMILES | Potency | activation |
| --- | --- | --- |
| CCOC(=O)N1N=C(CC)CC1(O)C(F)(F)F (stereo not given) | – | inactive: -0.253% |
| COc1ccc2c(C)nc(Nc3nc(C)cc(C)n3)nc2c1 | inconclusive [rising, single point] | – |
| O=C(CNC(=O)c1ccccc1F)Nc1ccc2c(c1)OCO2 | inconclusive [rising, single point] | – |
| CCOC(=O)CSc1cccc2cccnc12 | inconclusive [rising, single point] | – |
| c1ccc(Oc2nc(-c3ccccn3)nc3ccccc23)cc1 | inconclusive [rising, full curve, poor fit] | – |
| O=C(Nc1ccccc1F)c1ccc(CN2CCN(c3ccccc3)CC2)cc1 | – | inactive: -0.609% |
| Cc1ccc(-n2c(C)cc(/C=C3\SC(=O)NC3=O)c2C)cc1 | – | inactive: 0.255% |
| Cc1ccsc1/C=N\NC(=O)c1ccc2c(c1)OCO2 | – | inactive: -0.606% |
| O=C(NCC1CCCO1)c1ccc(CS(=O)(=O)c2ccc(Br)cc2)o1 (stereo not given) | inconclusive [rising, single point] | – |
| Cc1ccc(C(=O)CCC(=O)OCC(=O)NNC(=O)c2ccccc2Cl)cc1 | – | inactive: -0.152% |
| CN1CCN(C(=S)NC(=O)c2ccc(Br)cc2)CC1 | inconclusive [rising, single point] | – |
| O=C(O)CCc1ccc(-c2cccs2)o1 | inconclusive [rising, single point] | – |
| COc1cc(/C=N/NC(=O)c2cncc(Br)c2)cc([N+](=O)[O-])c1O | inconclusive [rising, single point] | – |
| Cc1ccccc1NC(=O)C(C)OC(=O)CNS(=O)(=O)c1ccc(C#N)cc1 (stereo not given) | inconclusive [rising, single point] | – |
| CCOc1ccc(/C=N/NC(=O)CN2CCCCC2)cc1OCC | inconclusive [rising, single point] | – |
| O=C(Oc1cccc2cccnc12)c1ccc(N2C(=O)C3C4CCC(C4)C3C2=O)cc1 (stereo not given) | inconclusive [rising, single point] | – |
| Cc1cccc(NC(=S)NNC(=O)CCn2cc(C)cn2)c1 | inconclusive [activator, partial curve] | – |
| OC(C#Cc1ccccn1)c1cccs1 (stereo not given) | inconclusive [rising, single point] | – |
| CCN1C/C(=C\c2cccc([N+](=O)[O-])c2)C(=O)/C(=C/c2cccc([N+](=O)[O-])c2)C1 | inconclusive [activator, full curve] | – |
| CCCNC(=O)c1nnsc1S(=O)c1ccc(Cl)cc1 (stereo not given) | – | inactive: -0.0036% |
| Cc1ccccc1-n1nnc2c(=O)oc3ccccc3c21 | inconclusive [rising, single point] | – |
| COc1ccc(Oc2nc(-c3ccncc3)nc3ccccc23)cc1 | inconclusive [rising, single point] | – |
| NC(=S)N/N=C1\CCOc2ccc(F)cc21 | inconclusive [rising, single point] | – |
| Cc1cccc(NC(=S)NC(=O)c2cccs2)n1 | inconclusive [rising, single point] | – |

| SMILES | Potency | activation |
| --- | --- | --- |
| COc1ccc(CCn2c(-c3ccc(Cl)cc3)n[nH]c2=S)cc1OC | – | inactive: -0.0466% |
| COC(=O)c1c(/N=C/N(C)C)sc2c1CCN(c1ncc(C(F)(F)F)cc1Cl)C2 | inconclusive [rising, single point] | – |
| CCOC(=O)N1CCN(C(=O)Cc2ccccc2OC)CC1 | inconclusive [rising, single point] | – |
| COc1cccc(/C=N/NC(=S)Nc2cccnc2)c1 | inconclusive [rising, single point] | – |
| COc1ccc(NC(=O)c2ccccc2N(Cc2ccccc2)S(C)(=O)=O)cc1 | – | inactive: -0.265% |
| COc1ccc(NC(=S)N/C(=N/S(=O)(=O)c2ccc(C)cc2)c2ccccc2)cc1 | – | inactive: -0.0692% |
| C=CCN(c1cccc(C(F)(F)F)c1)S(=O)(=O)c1cccc(C(=O)OCC(=O)NC(N)=O)c1 | inconclusive [rising, single point] | – |
| CNC(=S)N/N=C(\C)c1ccc(N2CCOCC2)cc1 | inconclusive [rising, single point] | – |
| S=C(NCc1ccco1)Nc1ccccn1 | inconclusive [rising, single point] | – |
| O=C1CC(c2ccco2)CC2=C1C(c1ccccc1)n1nc(C(F)(F)F)nc1N2 (stereo not given) | inconclusive [rising, single point] | – |
| S=C(NN=C1CCN(Cc2ccccc2)CC1)NC1CCCCC1 | inconclusive [rising, single point] | – |
| O=C(NC(=S)N1CCN(Cc2ccccc2)CC1)c1ccco1 | inconclusive [rising, single point] | – |
| COc1ccc2c(C)nc(Nc3nc(C)c(C)c(=O)[nH]3)nc2c1 | inconclusive [rising, single point] | – |
| Cc1ccc2c(c1)C(=O)N1[C@H]3c4cc(Cl)ccc4OC[C@@H]3[C@H](c3ccccc3)[C@]1(C)C(=O)N2 | inconclusive [rising, full curve, poor fit] | – |
| CCc1cc2c(=O)c(-c3ccc4c(c3)OCCO4)coc2c(CN2CCCCC2C)c1O (stereo not given) | inconclusive [rising, single point] | – |
| CNc1cc(C)nc(-n2nc(C)cc2C)n1 | inconclusive [rising, single point] | – |
| O=[N+]([O-])c1ccc(C[n+]2cccc3ccc4cccnc4c32)cc1 | inconclusive [rising, single point] | – |
| Cc1ccc(Cn2nnc3c(=O)n(CC(=O)NCC4CCCO4)cnc32)cc1 (stereo not given) | inconclusive [rising, single point] | – |
| COc1cccc(/C=N/Nc2ncc(C(F)(F)F)cc2Cl)c1O | inconclusive [rising, single point] | – |
| COCCNC(=S)N/N=C(\C)c1ccc(Cl)c(Cl)c1 | inconclusive [rising, single point] | – |
| Cc1ccc(-c2csc3nc(SCC(N)=O)n(Cc4ccccc4)c(=O)c23)cc1 | inconclusive [rising, single point] | – |
| Nc1c(Cl)ncnc1N/N=C/c1ccc2ccccc2n1 | inconclusive [rising, single point] | – |
